Some of the results follow. At the low end of the ranking, values are background and their order means little. The protein was read in a cell extract, so binding may be indirect.

In this assay the target is T1, HNF4alpha8 (COS-7 nuclear extract) (UniProt P41235-5).
T1 sequence: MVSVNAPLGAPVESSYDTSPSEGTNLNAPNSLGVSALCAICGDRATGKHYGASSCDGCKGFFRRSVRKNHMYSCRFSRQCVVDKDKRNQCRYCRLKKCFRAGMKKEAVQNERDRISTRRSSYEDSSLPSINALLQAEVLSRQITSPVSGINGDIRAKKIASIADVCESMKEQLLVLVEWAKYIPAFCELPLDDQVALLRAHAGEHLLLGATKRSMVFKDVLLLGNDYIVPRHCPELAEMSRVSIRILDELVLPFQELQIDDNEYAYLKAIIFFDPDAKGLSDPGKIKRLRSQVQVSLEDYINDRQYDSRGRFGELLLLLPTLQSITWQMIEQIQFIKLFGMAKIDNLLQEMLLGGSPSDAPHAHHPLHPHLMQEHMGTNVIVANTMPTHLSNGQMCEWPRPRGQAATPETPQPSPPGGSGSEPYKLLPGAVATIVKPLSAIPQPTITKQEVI
In words: protein-binding microarray. To be noted: COS-7 nuclear extract on double-stranded Agilent 4x180k PBM; binding buffer, salt, pH and temperature not given; high values mean tight binding; double strand, one strand shown; sequences stand for … in …GCCTAGGGAGATTAGAGTATCGGTCGA
As for GCAAGTAATTAAACATTTATTGAGCAGGTT, the binding signal (log2 normalized intensity) was -0.299.
For the sequence ATCTTGGAACAGGTCTCAGGAGTCCAGGGG, the binding signal (log2 normalized intensity) was 1.25.
The figure for ATCATAGTGTTTCTTCTGGTTCTGCAAGGC is 0.439.
On to GCCAAAAGTCTCAGAAGCTGGGAGACCACT, for which the binding signal (log2 normalized intensity) is -1.39.
In the case of TCAGGCAAACAACAGGCATCAACTCTATCA, the binding signal (log2 normalized intensity) is -1.44.
In the case of CTGCTTAAACCTTTCAAGGGATTCCTATCG, the binding signal (log2 normalized intensity) was -0.791.
For the sequence ATAAGGTGAACATACGTGGCTACCTGTGCA, the binding signal (log2 normalized intensity) is -0.00248.
Consider TGAGCTCTGGGGTCCTCTGCTGCCCTCTAG, for which the binding signal (log2 normalized intensity) came to 2.74.
Regarding ACTTCAGGATTCTTTATCTTAGCTTCAGCT, the binding signal (log2 normalized intensity) was -1.44.
Turning to TTTTATCACCACATCTCCCACTGTGGACTC, the binding signal (log2 normalized intensity) is 4.15.
For CCTTTGACCTTCGGCTTCCCCAGAGAAAGA, the binding signal (log2 normalized intensity) turned out to be 3.38.
Regarding AAAGCAAAGTCCAACACAGAAGCCTTTTGT, the binding signal (log2 normalized intensity) came out at 2.
Take CCACAAAAGCCAACAGTACAGCCTTTGATC: the binding signal (log2 normalized intensity) was 2.65.
For the sequence GGGAGACCAGGAAAGTGAATATCTGGCAAA, the binding signal (log2 normalized intensity) is -1.36.
In the case of AGGGAAAGTGGGGGGAAAGAATAACGTTAC, the binding signal (log2 normalized intensity) is -1.46.
The figure for AAAAGGCTAGAGCGCGCTGGAATCTTGATA is -1.41; for AGATTCTTTCTTCCTTTTGAAAAAGTGAGT it is 0.567.
As for ACTTCTGAGTTTTATCAGCTTCCCTGAGAT, the binding signal (log2 normalized intensity) was -0.495.
For the sequence TGTTCTTGGGGCCCACAGAGTCCAGAGGTC, the binding signal (log2 normalized intensity) worked out at 6.35.
Turning to AAAGGTTAGCTTGGACAGAGTTTGTGGTGT, the binding signal (log2 normalized intensity) was 1.97.
Then GGCTGTAGCAACCAAGTACCGCAAACAAGG, with -1.3; and GTCATGTCTCATTGCCCCTTGAGCTAAATA, with 3.32.
Turning to TGGACAGTGTAAGATAAAAATCAGAGATCA, the binding signal (log2 normalized intensity) was -1.43.
As for ACTTCTTTGTGATGTGTGGATTCAGCTCAC, the binding signal (log2 normalized intensity) came to 1.28.
Consider TTGTTTCCTCAGGGAGGAAGGCAACCACAG, for which the binding signal (log2 normalized intensity) is -1.12.
On to CCCCAGCATTTTGCAGACCTTGGTCAAAGT, for which the binding signal (log2 normalized intensity) was 2.99.
As for GTTCAGGAGTTGTCTGTCCAGTTCAGGAGT, the binding signal (log2 normalized intensity) came out at 1.38.
As for AAGATGGCTCTCCCGGGGCGGGGGTGACCA, the binding signal (log2 normalized intensity) is 1.04.
On to CCTTCAGGGGCATTTGAGTACATGCCTCTC, for which the binding signal (log2 normalized intensity) turned out to be 0.509.
On to GTTCCTGAGATAAAAAGAAGCTTGGTATGT, for which the binding signal (log2 normalized intensity) stood at 1.15.
For ATGTGGGGCGTGTGTTAGACTTTGGACCTG, the binding signal (log2 normalized intensity) is 9.77.
Then ACCTACCCTTTGCCCTGGACATATTTGTCT, with 2.49.
With CCCTTATCTTTTTAGCAACTGGTATGTTAG, the binding signal (log2 normalized intensity) turned out to be 2.06.
On to TGGACTAAGAGTAGCGGTTTCTGCTTGGTT, for which the binding signal (log2 normalized intensity) was determined as 0.164.
As to TGAGATAGGTACTATTATTAGAGTCCCTTT, the binding signal (log2 normalized intensity) is 1.22.
With GACCTGCGTAGCCCAAAGGTCAGTCTGCAG, the binding signal (log2 normalized intensity) turned out to be 4.15.
In the case of AACATGAAACAGTCACAGTTATCAGACAGA, the binding signal (log2 normalized intensity) was -1.26.
Then TGCTCATAGCTACGGGTGACCTTGAGCACT, with 3.93; and CTCAGCAAAGTCAGGTCAGTAGCCCAGGGT, with -1.1; and CAGAGTGATCTTTGAAACATAACAGCAACA, with 1.2.
Then TTACCTTGGCAGCCACTGAGGCTCTGTGCC, with -1.35; and GTGGTGCTGTCCAAGGTGCTAGCTCCGACT, with -1.35; and TGATTAGAAGAAAAGAGTTGCTCAAACCAA, with -1.05.
In the case of ATTCCAAGGACTGAGATAAGAGAAGGGGTC, the binding signal (log2 normalized intensity) was found to be 1.4.
For CTACAGGTATGCCTTTGAAGAGTACAGCCT, the binding signal (log2 normalized intensity) was -0.0565.
Turning to AGTGCAGTATGCGCTCTGGGAAACAGCACT, the binding signal (log2 normalized intensity) was -1.24.
For TGTCGTTTGCTTAGTCTTATCTGAGGTGCC, the binding signal (log2 normalized intensity) turned out to be 1.73.
As for AGGGGACTTCGCTGGAGGTGTTAAAGTGCC, the binding signal (log2 normalized intensity) is 0.389.
As for GAGGTATGCCAGGAATGCTGAGGAGGGCCT, the binding signal (log2 normalized intensity) was -1.29.
Then AGCCACCTGTCACTCAATGCAGCAGCATTG, with -1.47.
Then GGCCTGGGGGGAGACAACTGCAACAGGAGG, with -1.38.
Then GTGAAATGGGGGAAGGGCTGGAGACGCAGG, with -1.4; and GCCTAAGCAGGGCTAGACTTTAACCCCCTT, with 6.24; and CTTTATCCTACAAGGGAGATAAACTTTATC, with 0.672.
Consider GTTCACTGGGGAGACTCTCTCTCCTCTCCA, for which the binding signal (log2 normalized intensity) was -1.4.
For CTACTTAAAAAGAAATAGCCTGAAAATGTT, the binding signal (log2 normalized intensity) is -1.29.
Regarding ACCCTGTGATCATATAAGGAACAAAGTCAG, the binding signal (log2 normalized intensity) turned out to be 0.557.
Turning to CTCCCACCCTGCAATTCCCCTGGGCCCACG, the binding signal (log2 normalized intensity) turned out to be 2.21.
As to CCCTTTGCTGATTACCTCAACTCCCACATC, the binding signal (log2 normalized intensity) worked out at 1.54.
As to GTCCGAAGGTCAGCTGACCAACAGAGAAGG, the binding signal (log2 normalized intensity) stood at 2.28.
Then CACTGCTGGGTTTCTTCCCTAATGGACATC, with 1.77; and TAGGTCTTTTGGTGAGTCTTTGCCCCTGGA, with 3.51; and GAGAAAAAGTCAACACTTAGGGTGGATACT, with -0.996.
As to ATGGCAAGAGATAAGGGTGGCCATCCATCC, the binding signal (log2 normalized intensity) was -1.32.
In the case of CAGTCTAGAATCTGCAGCCCCTTTTGGAAT, the binding signal (log2 normalized intensity) came out at 2.01.
Turning to AAGCAGGAGCATGGGGGATGGGGCCTGGGA, the binding signal (log2 normalized intensity) is -1.45.
In the case of GCACACCTGGATCTTCCAGGCCTCCAGCTC, the binding signal (log2 normalized intensity) was -1.41.
ACAGCGTTTTCCCATTCATGACATTGATTT: the binding signal (log2 normalized intensity) came to 1.47.
As for CAAGGGTGGATATTGGGAGGCCCATTGTGC, the binding signal (log2 normalized intensity) was -0.142.
TTCACATAGCCACCAGGGCCTCTGAGATAA: the binding signal (log2 normalized intensity) was -1.32.
Turning to GACACTTTGAGAGAGGGACATGCTTGGCCT, the binding signal (log2 normalized intensity) was -1.4.
As to GAGACTGCCCTGAGCCGCCAGGCGGGTTCT, the binding signal (log2 normalized intensity) was -1.15.
Turning to AGTCTTTATTGGTACGTTCCAATATTCTGG, the binding signal (log2 normalized intensity) stood at 1.28.

The values are drawn from PMC10726135.
